Reference: ChEMBL document CHEMBL4888484, “Replenishing the malaria drug discovery pipeline: Screening and hit evaluation of the MMV Hit Generation Library 1 (HGL1) against asexual blood stage Plasmodium falciparum ,using a nano luciferase reporter read-out” (2022)
Screen size: about 150,000 compounds; about 540 (0.36%) showed an effect of 50% or more. The list shows a part of the results.

What follows are compounds tested on Plasmodium falciparum (assay: Primary screen in NF54 nanoGlo assay, in single point, at 2uM, 72h; a lower Z score goes with more inhibition). Conditions: timepoint 72 hour.
Format: functional, Erythrocyte

| Structure (SMILES) | % Inhibition [%] | Z score |
| --- | --- | --- |
| O=C(Nc1ccc2c(c1)CNC2)[C@H]1C[C@@H]1c1c(F)cccc1Cl | -1 | 0.07 |
| COc1ccc(-c2noc([C@H](C)O)c2C(=O)NC2CCOCC2)cc1OC | 2 | -0.25 |
| Cc1noc(-c2cccnc2NCCCC(C)(C)C2OCCO2)n1 | -9 | 1.34 |
| COc1ccc(C(=O)N2CCN(c3ncnc4c3CCC4)CC2)cc1 | -3 | 0.44 |
| Cc1cc(=O)n(CC(=O)Nc2ccc(F)cc2)c(N2CCOCC2)n1 | -22 | 2.38 |
| CNC(=O)c1nc(-c2ccccc2)n2c1CCN(C(=O)c1cccs1)CC2 | -1 | 0.12 |
| CCc1nc(C)sc1C(=O)NCCCN(C)c1ccccc1 | -16 | 2.71 |
| O=C(NCCCn1ccccc1=O)c1cccc2c1NCCC2 | -15 | 2.84 |
| C[C@H]1Cc2ccccc2N1C(=O)c1ccc(N2CCC(Cc3ccccc3)CC2)nn1 | -18 | 3.17 |
| O=C(Cc1cccnc1)N1CC[C@H](Oc2ncccn2)C1 | -13 | 2.48 |
| Cc1ccc(NC(=O)c2ccc3[nH]c4c(c3c2)CN(C(=O)C2CCC2)CC4)cc1 | 12 | -1.77 |
| N#Cc1ccccc1Cn1cnc2c1c(=O)n(Cc1ccccc1)c(=O)n2-c1ccc(Cl)cc1 | 6 | -0.98 |
| COCCNC(=O)C1CC(c2cccc(C)c2)CN(Cc2cccc(F)c2)C1 (stereo not drawn) | -4 | 0.71 |
| c1ccc2c(CCN3CCOCC34CC4)nsc2c1 | -4 | 0.45 |
| O=S1(=O)CC(NCc2ccccc2)C(NCc2ccccc2)C1 (stereo not drawn) | 0 | 0.02 |
| CN(C)c1cnn(CCc2ccc(F)cc2)c(=O)c1 | -13 | 1.34 |
| Cc1nc(N(C)Cc2cnn(C)c2)ccc1C#N | -14 | 1.88 |
| CC[C@H](NC(=O)Cn1nc(C)cc1N)c1ncccc1C | -6 | 1.06 |
| Cc1cnc(C(=O)N2CCOc3ccc(CN4CCCCCC4)cc3C2)cn1 | -15 | 1.57 |
| NC(=O)N1CCC[C@H]1C(=O)NCC1(c2cccc(Cl)c2F)CCCC1 | 0 | 0.04 |
| COCCN1CCCCC[C@H](O)c2cc(C(=O)N3CCN(c4ccccn4)CC3)ccc21 | 2 | -0.24 |

| Structure (SMILES) | % Inhibition [%] | Z score |
| --- | --- | --- |
| CCC(=O)N1CCC[C@](c2nnnn2C2CCCC2)(N(CC)Cc2ccccc2)C1 | -4 | 0.59 |
| CC(C)c1noc(CN(C)C[C@@H]2CC=CCC2)n1 | -2 | 0.42 |
| Cn1ncnc1NC(=O)c1ccc(-c2cccc(Br)c2)n1C | -2 | 0.47 |
| O=C(O)C1CCCCC1C(=O)N(Cc1ccccc1)Cc1ccccc1 (stereo not drawn) | -12 | 2.28 |
| Cc1cc(CN(C)CCc2nccn2C)ccn1 | 6 | -0.63 |
| COc1ccc(CN2C(=O)[C@H]3CCCC3=Nc3cc(C)c(C)cc32)cc1F | 2 | -0.28 |
| COC[C@H]1CCCN1C(=O)c1nc(C)n2c1CCCC2 | -8 | 1.09 |
| CCN(C(=O)CCc1nccs1)c1cc(C)cc(C)c1 | 3 | -0.53 |
| Cc1cc([C@@H](O)CCNC(=O)C(=O)NCc2ccc(F)cc2)c(C)o1 | -14 | 1.83 |
| CN(CCNC(=O)[C@@H]1C[C@H](Oc2ccccc2)CN1C1CCOCC1)C1CCCCC1 | -16 | 2.14 |
| Nc1ccnc(N2CCC(Oc3ccc4c(c3)CCC4)(C(=O)O)CC2)n1 | -18 | 1.69 |
| O=S(=O)(c1cc(-c2nc(-c3ccc(Cl)cc3)no2)cs1)N1CCc2ccccc2C1 | -7 | 0.83 |
| O=C(CC1CCCC1)NCCCc1cnc2ncnn2c1 | 7 | -1.28 |
| O=C(NCCc1ccc[nH]1)c1cc(C(F)F)ncn1 | -3 | 0.53 |
| O=c1c2c([nH]c3c(-c4cccc5ccccc45)c(Cc4ccccc4)nn13)CCC2 | -6 | 1.04 |
| Cc1noc([C@H]2CCN(c3nnc(C(F)(F)F)s3)C2)n1 | 0 | -0.01 |
| COc1ccc(C(=O)N2CCN(c3nc(CN4CCN(c5ccc(C)cc5)CC4)cc(=O)[nH]3)CC2)cc1 | -6 | 1.17 |
| O=C(COc1cccc(F)c1)N1CCN(C(=O)c2c[nH]c(=O)[nH]2)CC1 | -2 | 0.21 |
| CCC1CCC(C(=O)NCc2snc(OC)c2Br)O1 (stereo not drawn) | -4 | 0.6 |
| CCOC(=O)c1csc(CN2CCC(C(C)(C)C)C(O)C2)n1 (stereo not drawn) | -2 | 0.27 |
| CC(C)(C)NC(=O)N(Cc1ccc(F)cc1)Cc1ccccc1OS(=O)(=O)c1ccc(F)cc1 | -13 | 1.23 |

| Structure (SMILES) | % Inhibition [%] | Z score |
| --- | --- | --- |
| CCc1nn(C)c(Cl)c1CN1CCC2(CC1)[C@H](O)C[C@@H]2O | -3 | 0.49 |
| Nc1ccnc(N2CCN(Cc3cc(C4CC4)n[nH]3)C[C@H](O)C2)n1 | -3 | 0.69 |
| Cn1cc(CCC(=O)N2CCC[C@H](C(=O)c3ccc(C(C)(C)C)cc3)C2)cn1 | 6 | -0.74 |
| CN1CCC(CN(CCc2ccccc2)C(=O)Cc2cccs2)CC1 | -7 | 0.91 |
| Cc1ccc(C)c(N2CCN(C(=O)C3CCC3)[C@@H](C)C2=O)c1 | -3 | 0.31 |
| CS(=O)(=O)c1ccc(-c2noc(-c3cccc4[nH]ncc34)n2)cc1 | 0 | -0.07 |
| Cc1ccc(N2C[C@]3(c4ccccc4)C[C@@H](c4ccccc4)ON3[C@H]2c2ccc3c(c2)OCO3)cc1 | -4 | 0.43 |
| Cc1cccc(OCC(=O)N2CCC(CN3CCCC3)CC2)c1 | -4 | 0.73 |
| Cc1ncccc1OC1(C(=O)O)CCN(c2noc(C(C)C)n2)CC1 | -10 | 2.02 |
| CCc1nc(C(=O)N2CCN(c3ccccc3Cl)CC2)c[nH]1 | -12 | 2.26 |
| C=CCNC(=O)COc1ccc(Br)cc1 | 2 | -0.32 |
| CC1CC(NCCc2cc(F)cc3c2OCOC3)CN1C1CC1 (stereo not drawn) | -5 | 0.45 |
| Cc1ccc(C)c(S(=O)(=O)Nc2cc(-c3ccsc3)no2)c1 | -25 | 2.46 |
| Cc1cn2c(n1)CC[C@H](NS(=O)(=O)c1cncc(F)c1)C2 | -6 | 0.65 |
| Cc1nc(C)c(C(=O)OCC(=O)N(C)CC(=O)Nc2ccc(F)cc2)s1 | -7 | 1.31 |
| O=C(c1ccc(C(F)(F)F)n(Cc2ccc(Cl)cc2)c1=O)N1CCOCC1 | 1 | -0.18 |
| CC1Nc2ccnn2C(C)C1CCC(=O)NCc1ccc(F)cc1 (stereo not drawn) | 2 | -0.24 |
| O=C(OC1CCCCC1)c1nsc(Cl)c1Cl | 3 | -0.41 |
| Cc1cccc(N2CCC[C@H](c3nc(C)cs3)C2)n1 | -13 | 1.48 |
| CN(CCc1nc2ccccc2[nH]1)S(=O)(=O)[C@H]1CCS(=O)(=O)C1 | -13 | 1.22 |
| COc1cccc(N2CCN(C(=O)c3c(C)n(CCc4ccccc4OC)c(C)cc3=O)CC2)c1 | -2 | 0.39 |

| Structure (SMILES) | % Inhibition [%] | Z score |
| --- | --- | --- |
| CC[C@H]1CCCCN1S(=O)(=O)c1ccc2c(c1)N(Cc1noc(C)n1)C(=O)CO2 | -10 | 1.81 |
| CN(Cc1cscn1)C(=O)c1snnc1C(C)(C)C | 6 | -0.61 |
| O=C(c1ncccc1O)N1CC[C@@]2(CCCN(C3CCCCC3)C2=O)C1 | 5 | -0.75 |
| O=C(Cn1ncnn1)N1CCC[C@H](c2cccc(C(F)(F)F)c2)C1 | -12 | 1.63 |
| CNC(=O)c1cc(Br)ccc1Cl | 2 | -0.26 |
| O=C(CNc1cc(S(=O)(=O)N2CCOCC2)ccc1Oc1ccc(F)cc1)N1CCNC1=O | -10 | 1.38 |
| c1ccc(CNC(=NC2CC2)NC2CCCC2)cc1 | -6 | 1.08 |
| CCOCCCNC(=O)[C@H]1CCN(c2cnn(Cc3ccccc3)c(=O)c2)C1 | -12 | 1.71 |
| CN1N=C(CC(=O)NCC(C)(C)Cc2cccc(Cl)c2)CC1=O | -5 | 0.53 |
| CC[C@H](C)NC(=O)CCN(CCc1ccccc1)c1nc(-c2ccc(F)cc2)nc2ccccc12 | -8 | 1.36 |
| O=C(c1cscn1)N1CCN(c2ncccn2)CC1 | -7 | 0.81 |
| OC1(Cc2nc(-c3ccc(Br)o3)no2)CCCC1 | 4 | -0.69 |
| c1ccc(Oc2cccc(CN3CCN(c4ccccc4)CC3)c2)cc1 | -13 | 2.14 |
| COC(=O)c1cc(C2CC2)nc2c1c(=O)n(Cc1cc(C)ccc1C)c(=O)n2-c1ccccc1 | 5 | -0.59 |
| CN(Cc1ccc2cc[nH]c2c1)C(=O)[C@H]1CCc2n[nH]c(=O)n2C1 | -23 | 4.57 |
| CCc1ccc(CNC(=O)N(C)Cc2nnc[nH]2)s1 | 31 | -3.47 |
| COc1cc(Br)c(F)cc1S(=O)(=O)Nc1onc(C2CCCCC2)c1C | -26 | 3.07 |
| CCCCc1noc(Cn2cnc3c(cnn3C)c2=O)n1 | -12 | 1.12 |
| Cc1ccc([C@@H]2COCCN2Cc2cn3ccccc3c2C#N)o1 | -2 | 0.22 |
| COc1ccccc1Nc1c2c(nc3ccc(NC(=O)c4ccc5c(c4)OCO5)cc13)CCCC2 | 2 | -0.26 |
| COc1ccc(NC(=O)c2ccc3nn(CC(=O)NC4CCCC4)c(=O)n3c2)cc1 | -18 | 1.63 |
